Read counts are not given, so values of variants with three or more changes are uncertain.

The labels stand for the following.
B1: CPEB3 Ribozyme (parent)
chain: UAACAGGGGGCCACAGCAGAAGCGUUCACGUCGCAGCCCCUGUCAGAUUCUGGUGAAUCUGCGAAUUCUGCUGUAUAUCUC

This data set covers variants of B1. As to the kind of experiment: self-cleavage, relative activity (ratio to wild type); higher = more cleavage; in vitro, sequencing. The method in brief:
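Libraries of CPEB3 self-cleaving ribozyme mutants came from rounds of error-prone PCR and carried barcodes, which DNA sequencing matched to variants. In vitro transcription used T7 RNA polymerase at 37°C for 5 hours, with a further 15 min in DNase I before EDTA stopped the reaction; the ribozymes cleaved during both steps. The RNA was reverse transcribed with template switching and sequenced on Illumina. Relative activity is the cleaved/total read fraction of a variant divided by that of the unmutated ribozyme, averaged over three batches with at least 5 reads.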
Consider UAACAGGUGGCCACAGCAGAAGCGUUCACGUCGCAGCCCCUGUCAGAUUCUGGUGAAUCUGCGAAUUCCGCUGUAUAUCAC, for which the self-cleavage is 0.13.

Take UAACAGGUGACCACAGCAGAAGCGUUCACGUCGCGGCCCCUGUCGGAUUCUGGUGAAUCUGCGAAUUCUGCUGUAUAUCUC: the self-cleavage was 0.24.

Take UAACAGGGAGCCACUGCGGAAGCGUUCACGUCGCAGCCCCUGUCAGAUUCUGGUGAAUCUGCGAAUUCUGCUGUAUAUCUC: the self-cleavage came out at 0.32. For UAACAGGUGGCCACAGCAGAAGCGUUCACGUCGCAGCCCCUGUCAGAUUCUGGCGAAUCUGCGAAUUCUGCUGUACAUCUC, the self-cleavage was determined as 0.16.

For the variant UAACAGGUGGCCACAGCAGAGGCGUUCACGUCGCAGCCCCUGUCUGAUUCUGGUGAAUCUGCGAAUUCUGCUGUAUAUCCC, the self-cleavage turned out to be 0.11. For the variant UAACAGGUGGCCACAGUAGAAGCGUUCACGUCGCAGCCCCUGUCAGAUUCUGGUGAACCUGCGAAUUCUGCUGUAUACCUC, the self-cleavage stood at 0.05. Then UAACAGGGAGCCACAGCGGAAGCGUUCUCGUCGCAGCCCAAGUCAGAUUCUGGUGAUUCUGCGAAUUCUGCUGUAUAUCUC, with 0.04; and UAACAGGUGGCCACAGCAGAAGCGUUCACGUCGCAGCCCCCGUCAGAUUCUGGUGAGUCAGUGAAUUCUGCUGUAUAUCUC, with 0.07.

Consider UAACAGGGAGCCACCGCAGAAGCGUUCACGUCGCAGCCCCUGUCAGAUUCUGGUGAAUCUGCGAAUUCUGCAGUAUAUCUC, for which the self-cleavage was 0.14. Then UAACAGGUGGCCACAGCAGACGCGUUCACGUCGCAGCCCCUGCCAGAUUCUGGUGAAUCUGCGAAUUCUGCUGUAUAACUC, with 0.05. On to UAACAGGGAGCCCCAGCAGAUGCGUUCACGUCGCAGCCCCAGUCAGAUUCUGGGGAAUCUGCGAAUUCUGCUGUAUAUCUC, for which the self-cleavage was determined as 0.08. Take UAACAGGUGGCCACAGCAGAAGCGUUCACGACGCAGCCCCUGUCAGUUUCUGGUGAAUCUGCGAAUACUGCUGUAUAUCUC: the self-cleavage was 0.12.

With UAACAGGUGGCCACAGCAGAAGCGUUCACGUCGCAGCCCCUGUCAGAUUCUGGUGAGUCUGCGAAUUAUGCUGUAUAUCAC, the self-cleavage turned out to be 0.12. In the case of UAACAGGGAGCCACUGCAGAAGCGUUCACGUCGCUGCCCCUGUCAGAUACUGGUGAAUCUGCGAAUUCUGCCGUAUGUCUC, the self-cleavage was determined as 0.03. As for UAACAGGGAGCCACAGCUGAAGCGUUCACGUCGCAGCCCCUGUCAGAUUCAGGUGAAUCUGCGAAUUCUGCUGUAUAUCAC, the self-cleavage was determined as 0.39. On to UAACAGGUGGCCACAGCAGAAGCGGUCGCGUCGCAGCCCCUGUCAGGUUCUGGUGAAUCUGCGAAUUCCGCUGUAUAUCUC, for which the self-cleavage turned out to be 0.05. Then UAACAGGGAGCCACAGCAGACGCGUUCACGUCGCGGCCCCCGUCAGUUUCUGGUGAGCCUGCGAAUUCUGCUGUAUAUCUC, with 0.03; and UAACAGGUGGCCACAGCAGAAGCGUUCACGUCGCAGCCCCUGUCAAAUUCAGGUGAAUCUGCGAAUUCUGCUGUAUAUCUC, with 0.12.

Turning to UAACAGGGAGCCACAGCGGAAGCGUUCACAUCGCAGCCCCUGUCAGAUUCUGGUGAAUCUGCGAAUUCUGCUGUAUAUCUC, the self-cleavage amounted to 0.24. The same measure for UAACAGGGAGCCGCAGCUGAAGCGUUCACGUCGCAGCCCCCCUCAGAUUCUGGUGAAUCUGCGAAUUCUGCUGUAUAUCUC: 0.06; for UAACAGGUGGCCACAGCAGAAGCGCUCGCGUCUCAGCCCCCGUCAGAUUCUGGUGAAUCUGCGAAUUCUGCUGUAUAUCUC: 0.09.

UAACAGGGAGCCGCAGCAGAAGCGUUCACGCCGCUGCCCCUGUCAGGUUCUGGUGAAUCUGCGAAUUCUGCUGUAUAUCUC: the self-cleavage worked out at 0.05. The same measure for UAACAGGUUGCCACAGCAGAAGCGUUCACGCCGCAGCCCCCGUCAGAUUCUGGUGAAUCUGCGAAUUCUGCUGUAUAUCUC: 0.36; for UAACAGGGAGCCACUGCAGAAGCGUACACGUCGCGGCCCACGUCAGCUUCUGGUGAAUCUGCGAAUUCUGCUGUAUAUCUC: 0.04.

For UAACAGGGAGCCACAGCGGAAGCGUUCUCGUCGCAGCCCCUGCCAGACUCUAGUGAAUCUGCGGAUUCUGCUGUAUAUCUC, the self-cleavage came out at 0.03. As for UAACAGGUGGCCACAGCAGAGGAGUUCACGUCGCAGCCCCUGUCAGAUUCUGGUGAAUCUGCGAAUUCAGCUGUGUAUCUC, the self-cleavage came out at 0.11. Then UAACAGGUGGCCACAGCAGAAGCGUUCACGUCGCAGCCCCUGUCAGAUUCCGGUGUAUCUGCGAAUUCUGCUGUAUAUCUC, with 0.07; and UAACAGGUGGCCACAGCAGAGGCGUACACGUCGCUGCCCCUGUCAGACUCUGGUGAAUCUGCGUAUUCUGCAGUAUAUCUC, with 0.05; and UAACAGGUGGCCACAGCAGAAGCGUUCACGUCUCAGCCCCUGUCAGAUUCUGGUGGAUCUGCGAAUUCUGCUGUAUUUCUC, with 0.15. The same measure for UAACAGGGAGCCACUGCAGAAGCGUUCACGGCGCAGCCCCCGUCAGGUUCUGGUGAAUCUGCGAAUUCUGCUGUAUAUCUC: 0.22. As for UAACAGGGAGCCACGGCAGAAGCGUUCACGUCGCAGCCCCUGUCAGAUUCUGGUGAAUCUGCGAAUUCUGCAGUAUAUCUC, the self-cleavage amounted to 0.13.

Turning to UAACAGGUGGCCACAGCAGAGGCGUUCACGUCGCAGCCCCUGUCAGAUUCUGGUGAAACUGCGGAUUCUUCUGUAUAUCUC, the self-cleavage amounted to 0.05. Then UAACAGGUGGCCACAGCAGAAGCGUUCACGUUGCAGCCCCUGUCGGAUUCUGGUGAAUCUGCGAAUUCUGCUGUAUAUCCC, with 0.07; and UAACAGGUGGCCACAGCAGAGGCGUUCACGUCGCAGCCCCUGUCAGACUCUGGUGAAUCGGUGAAUUCUGCGGUAUAUCUC, with 0.02.
